In patent US11230543B2, “Biaryl monobactam compounds and methods of use thereof for the treatment of bacterial infections” (priority 2015, dated 2022):
Structures can show the parent of a compound that is named as a salt. At least one read-out could not be matched to a standard name with certainty.

Experiments:
[1] = tested on: Acinetobacter baumannii expressing TEM-1, AmpC, and Oxa-24/40 (CL6188); assay: Antibiotic activity: growth inhibitory concentration (OD600), Acinetobacter baumannii CL6188; assay type: cell-based; conditions: lowest concentration inhibiting 95% of bacterial growth; in the presence of β lactamase inhibitor Relebactam 4 μg/mL; 35±2° C. for 22 hours; tested range 100 μM to 0.098 μM
How it was run: (§1)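 Clinical strains at ~2×10^5 CFU/mL in cation-adjusted Mueller-Hinton II broth, with relebactam at 4 μg/mL final; compounds 100 μM to 0.098 μM final. After 22 hours at 35±2° C, OD600 read; MITC95 is lowest concentration giving 95% growth inhibition.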

[2] = tested on: Escherichia coli expressing NDM-1 (CLB30016); assay: Antibiotic activity: growth inhibitory concentration (OD600), Escherichia coli CLB30016; assay type: cell-based; conditions: lowest concentration inhibiting 95% of bacterial growth; in the presence of β lactamase inhibitor Relebactam 4 μg/mL; 35±2° C. for 22 hours; tested range 100 μM to 0.098 μM
How it was run: as §1

SMILES: C[n+]1cc(-c2ccc(OC[C@H](O/N=C(\C(=O)N[C@@H]3C(=O)N(OS(=O)(=O)[O-])C3(C)C)c3csc(N)n3)C(=O)O)cc2)cn1CC1CNC1 [Example 16, (S)-3-((Z)-2-(2-aminothiazol-4-yl)-2-(((S)-2-(4-(1-(azetidin-3-ylmethyl)-2-methyl-1H-pyrazol-2-ium-4-yl)phenoxy)-1-carboxy-ethoxy)imino)acetamido)-2,2-dimethyl-4-oxoazetidin-1-yl sulfate]
- AB_CL6188 MITC95 [1]: 3.125 µM
- EC_CLB30016 MITC95 [2]: 6.25 µM

SMILES: C[n+]1cc(-c2ccc(OC[C@H](O/N=C(\C(=O)N[C@@H]3C(=O)N(OS(=O)(=O)[O-])C3(C)C)c3csc(N)n3)C(=O)O)cc2F)cn1C[C@@H](O)CN.O=CO (single isomer, unassigned) [Example 43]
- AB_CL6188 MITC95 [1]: 3.125 µM
- EC_CLB30016 MITC95 [2]: 6.25 µM

SMILES: Cn1c(-c2ccc(OC[C@H](O/N=C(\C(=O)N[C@@H]3C(=O)N(OS(=O)(=O)O)C3(C)C)c3csc(N)n3)C(=O)O)cc2F)cn(CCCN)c1=N [Example 96, (S)-3-(4-(1-(3-aminopropyl)-2-imino-3-methyl-2,3-dihydro-1H-imidazol-4-yl)-3-fluorophenoxy)-2-((((Z)-1-(2-aminothiazol-4-yl)-2-(((S)-2,2-dimethyl-4-oxo-1-(sulfooxy)azetidin-3-yl)amino)-2-oxoethylidene)amino)oxy)propanoic acid]
- AB_CL6188 MITC95 [1]: 6.25 µM
- EC_CLB30016 MITC95 [2]: 12.5 µM

SMILES: C[n+]1cc(-c2c(F)cc(OC[C@H](O/N=C(\C(=O)N[C@@H]3C(=O)N(OS(=O)(=O)O)C3(C)C)c3csc(N)n3)C(=O)O)cc2F)cn1CCCN.O=C(O)C(F)(F)F [Example 3, (S)-3-((Z)-2-(((S)-2-(4-(1-(3-aminopropyl)-2-methyl-1H-pyrazol-2-ium-4-yl)-3,5-difluorophenoxy)-1-carboxyethoxy)imino)-2-(2-aminothiazol-4-yl)acetamido)-2,2-dimethyl-4-oxoazetidin-1-yl sulfate compound with 2,2,2-trifluoroacetic acid (1:1)]
- AB_CL6188 MITC95 [1]: 6.25 µM
- EC_CLB30016 MITC95 [2]: 3.13 µM

SMILES: CC1(C)[C@H](NC(=O)/C(=N\O[C@@H](COc2ccc(-c3cnc(NCCN)nc3)cc2)C(=O)O)c2csc(N)n2)C(=O)N1OS(=O)(=O)O [Example 70, (S)-3-(4-(2-((2-aminoethyl)amino)pyrimidin-5-yl)phenoxy)-2-((((Z)-1-(2-aminothiazol-4-yl)-2-(((S)-2,2-dimethyl-4-oxo-1-(sulfooxy)azetidin-3-yl)amino)-2-oxoethylidene)amino)oxy)propanoic acid]
- AB_CL6188 MITC95 [1]: 12.5 µM
- EC_CLB30016 MITC95 [2]: 6.25 µM

SMILES: C[n+]1cc(-c2ccc(OC[C@H](O/N=C(\C(=O)N[C@@H]3C(=O)N(OS(=O)(=O)[O-])C3(C)C)c3nc(N)sc3Cl)C(=O)O)cc2)ccc1NCCN [Example 67, (S)-3-((Z)-2-(2-amino-5-chlorothiazol-4-yl)-2-(((S)-2-(4-(6-((2-aminoethyl)amino)-1-methylpyridin-1-ium-3-yl)phenoxy)-1-carboxyethoxy)imino)acetamido)-2,2-dimethyl-4-oxoazetidin-1-yl sulfate]
- AB_CL6188 MITC95 [1]: 3.125 µM
- EC_CLB30016 MITC95 [2]: 6.25 µM

SMILES: CC1(C)[C@H](NC(=O)/C(=N\O[C@@H](COc2ccc([C@H]3CN=C(NCCN)N3)cc2)C(=O)O)c2csc(N)n2)C(=O)N1OS(=O)(=O)O [Example 58, (S)-3-(4-((S)-2-((2-aminoethyl)amino)-4,5-dihydro-1H-imidazol-4-yl)phenoxy)-2-((((Z)-1-(2-aminothiazol-4-yl)-2-(((S)-2,2-dimethyl-4-oxo-1-(sulfooxy)azetidin-3-yl)amino)-2-oxoethylidene)amino)oxy)propanoic acid]
- AB_CL6188 MITC95 [1]: 3.125 µM
- EC_CLB30016 MITC95 [2]: 25 µM

SMILES: CC1(C)[C@H](NC(=O)/C(=N\O[C@@H](COc2ccc(-c3cn(CCCN)nc3N)cc2)C(=O)O)c2csc(N)n2)C(=O)N1OS(=O)(=O)O [Example 27, (S)-3-(4-(3-amino-1-(3-aminopropyl)-1H-pyrazol-4-yl)phenoxy)-2-((((Z)-1-(2-aminothiazol-4-yl)-2-(((S)-2,2-dimethyl-4-oxo-1-(sulfooxy)azetidin-3-yl)amino)-2-oxoethylidene)amino)oxy)propanoic acid]
- AB_CL6188 MITC95 [1]: 12.5 µM
- EC_CLB30016 MITC95 [2]: 12.5 µM

SMILES: CC1(C)[C@H](NC(=O)/C(=N\O[C@@H](COc2ccc(-c3ccc(C(=O)NC(CN)CN)nc3)cc2)C(=O)O)c2csc(N)n2)C(=O)N1OS(=O)(=O)O [Example 81, (S)-2-((((Z)-1-(2-aminothiazol-4-yl)-2-(((S)-2,2-dimethyl-4-oxo-1-(sulfooxy)azetidin-3-yl)amino)-2-oxoethylidene)amino)oxy)-3-(4-(6-((1,3-diaminopropan-2-yl)carbamoyl)pyridin-3-yl)phenoxy)propanoic acid]
- AB_CL6188 MITC95 [1]: 3.125 µM
- EC_CLB30016 MITC95 [2]: 3.125 µM

SMILES: C[n+]1cc(-c2ccc(OC[C@H](O/N=C(\C(=O)N[C@@H]3C(=O)N(OS(=O)(=O)O)C3(C)C)c3csc(N)n3)C(=O)O)cc2F)cn1CCCN [Example 24, (S)-3-((Z)-2-(((S)-2-(4-(1-(3-aminopropyl)-2-methyl-1H-pyrazol-2-ium-4-yl)-3-fluorophenoxy)-1-carboxyethoxy)imino)-2-(2-aminothiazol-4-yl)acetamido)-2,2-dimethyl-4-oxoazetidin-1-yl sulfate]
- AB_CL6188 MITC95 [1]: 1.563 µM
- EC_CLB30016 MITC95 [2]: 3.125 µM

SMILES: CC(CN)Nc1ccc(-c2ccc(OC[C@H](O/N=C(\C(=O)N[C@@H]3C(=O)N(OS(=O)(=O)[O-])C3(C)C)c3csc(N)n3)C(=O)O)cc2)c[n+]1C (stereo partly drawn) [Example 75, (3S)-3-((Z)-2-(((1S)-2-(4-(6-((1-aminopropan-2-yl)amino)-1-methylpyridin-1-ium-3-yl)phenoxy)-1-carboxyethoxy)imino)-2-(2-aminothiazol-4-yl)acetamido)-2,2-dimethyl-4-oxoazetidin-1-yl sulfate]
- AB_CL6188 MITC95 [1]: 1.563 µM
- EC_CLB30016 MITC95 [2]: 3.125 µM

SMILES: C[n+]1cc(-c2ccc(OC[C@H](O/N=C(\C(=O)N[C@@H]3C(=O)N(OS(=O)(=O)[O-])C3(C)C)c3nc(N)sc3Cl)C(=O)O)cc2F)ccc1NCCN [Example 69, (S)-3-((Z)-2-(2-amino-5-chlorothiazol-4-yl)-2-(((S)-2-(4-(6-((2-aminoethyl)amino)-1-methylpyridin-1-ium-3-yl)-3-fluorophenoxy)-1-carboxyethoxy)imino)acetamido)-2,2-dimethyl-4-oxoazetidin-1-yl sulfate]
- AB_CL6188 MITC95 [1]: 3.125 µM
- EC_CLB30016 MITC95 [2]: 6.25 µM

SMILES: CC1(C)[C@H](NC(=O)/C(=N\O[C@@H](COc2ccc(-c3cn(CCCN)[n+](CCN)c3)cc2)C(=O)O)c2csc(N)n2)C(=O)N1OS(=O)(=O)[O-] [Example 100, (S)-3-((Z)-2-(((S)-2-(4-(2-(2-aminoethyl)-1-(3-aminopropyl)-1H-pyrazol-2-ium-4-yl)phenoxy)-1-carboxyethoxy)imino)-2-(2-aminothiazol-4-yl)acetamido)-2,2-dimethyl-4-oxoazetidin-1-yl sulfate]
- AB_CL6188 MITC95 [1]: 3.125 µM
- EC_CLB30016 MITC95 [2]: 3.125 µM

SMILES: CC1(C)[C@H](NC(=O)/C(=N\O[C@@H](COc2ccc(C(N)CNC3=NCCN3)cc2)C(=O)O)c2csc(N)n2)C(=O)N1OS(=O)(=O)O (stereo partly drawn) [Example 61, (2S)-3-(4-(1-amino-2-((4,5-dihydro-1H-imidazol-2-yl)amino)ethyl)phenoxy)-2-((((Z)-1-(2-aminothiazol-4-yl)-2-(((S)-2,2-dimethyl-4-oxo-1-(sulfooxy)azetidin-3-yl)amino)-2-oxoethylidene)amino)oxy)propanoic acid]
- AB_CL6188 MITC95 [1]: 25 µM
- EC_CLB30016 MITC95 [2]: 50 µM

SMILES: CC1(C)[C@H](NC(=O)/C(=N\O[C@@H](COc2ccc(-n3cc[n+](CCCN)c3)nc2)C(=O)O)c2csc(N)n2)C(=O)N1OS(=O)(=O)[O-] [Example 112, (S)-3-((Z)-2-(((S)-2-((6-(3-(3-aminopropyl)-1H-imidazol-3-ium-1-yl)pyridin-3-yl)oxy)-1-carboxyethoxy)imino)-2-(2-aminothiazol-4-yl)acetamido)-2,2-dimethyl-4-oxoazetidin-1-yl sulfate]
- AB_CL6188 MITC95 [1]: 5.208 µM
- EC_CLB30016 MITC95 [2]: 20.83 µM

SMILES: CCOC(=O)[C@H](COc1ccc(-c2cn(CCCN)c(=N)n2C)cc1)O/N=C(\C(=O)N[C@@H]1C(=O)N(OS(=O)(=O)O)C1(C)C)c1csc(N)n1 [Example 116, Ethyl (S)-3-(4-(1-(3-aminopropyl)-2-imino-3-methyl-2,3-dihydro-1H-imidazol-4-yl)phenoxy)-2-((((Z)-1-(2-aminothiazol-4-yl)-2-(((S)-2,2-dimethyl-4-oxo-1-(sulfooxy)azetidin-3-yl)amino)-2-oxoethylidene)amino)oxy)propanoate]
- AB_CL6188 MITC95 [1]: 6.25 µM
- EC_CLB30016 MITC95 [2]: 50 µM

SMILES: C[n+]1cc(-c2ccc(OC[C@H](O/N=C(/C(=O)N[C@@H]3C(=O)N(OS(=O)(=O)[O-])C3(C)C)c3csc(N)n3)C(=O)O)cc2)cn1CCCNC[C@H](O)CO [Example 101, (S)-3-((E)-2-(2-aminothiazol-4-yl)-2-(((S)-1-carboxy-2-(4-(1-(3-(((S)-2,3-dihydroxypropyl)amino)propyl)-2-methyl-1H-pyrazol-2-ium-4-yl)phenoxy)ethoxy)imino)acetamido)-2,2-dimethyl-4-oxoazetidin-1-yl sulfate]
- AB_CL6188 MITC95 [1]: 6.25 µM
- EC_CLB30016 MITC95 [2]: 6.25 µM

SMILES: CC1(C)[C@H](NC(=O)/C(=N\O[C@@H](COc2ccc(-n3cc[n+](CCCN)c3)nc2)C(=O)O)c2csc(N)n2)C(=O)N1OS(=O)(=O)[O-] [Example 36, (S)-3-((Z)-2-(((S)-2-((6-(3-(3-aminopropyl)-1H-imidazol-3-ium-1-yl)pyridin-3-yl)oxy)-1-carboxyethoxy)imino)-2-(2-aminothiazol-4-yl)acetamido)-2,2-dimethyl-4-oxoazetidin-1-yl sulfate compound with 2,2,2-trifluoroacetic acid (1:1)]
- AB_CL6188 MITC95 [1]: 3.125 µM
- EC_CLB30016 MITC95 [2]: 12.5 µM
